± gives the standard deviation of the averaged measurements. Restriction of a single-cycle SIVsab GFP reporter by TRIM5α v1-loop variants in CRFK cells. Human variants: read share among cells still uninfected after two challenges over input, higher = gained restriction. Rhesus variants: share among infected cells over input, higher = lost restriction. Reporter dose not given per row. No active / inactive call per row; the paper calls a change when both replicates lie above its controls (mean + 2 SD of stop or wild-type variants, or the top frameshift score). Residues outside the varied loop are taken from Swiss-Prot. The paper reads the human single-substitution scores as noise; they and the rhesus combinations repeat poorly (rank correlation 0.3 to 0.4), indel scores repeat only for the top variants, rhesus substitutions well (0.9).

This series has as its system SIVsab (simian immunodeficiency virus of sabaeus monkeys), single-cycle GFP reporter, in CRFK cells. Kind of series: enrichment among infected cells over input (fold); higher = weaker restriction. Particulars: library: human / rhesus combinations. The procedure: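 Pools of CRFK cells expressing variants of the TRIM5α v1 loop were challenged with the single-cycle reporter, sorted by GFP and sequenced; mean of two replicates.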
Take “MASGILLNVKEEVTCPICLELLTEPLSLHCGHSFCQACITANHKKSMLYKEGERSCPVCRISYQPENIQPNRHVANIVEKLREVKLSPEEGQKVDHCARHGEKLLLFCQEDSKVICWLCERSQEHRGHHTFLMEEVAQEYHVKLQTALEMLRQKQQEAEKLEADIREEKASWKIQIDYDKTNVSADFEQLREILDWEESNELQNLEKEEEDILKSLTKSETEMVQQTQYMRELISELEHRLQGSMMDLLQGVDGIIKRIENMTLKKPKTFHKNQRRVFRAPDLKGMLDMFRELTDARRYWVDVTLAPNNISHAVIAEDKRQVSSRNPQIMYGAPGTLYTFQTFTNFNYCTGVLGSQSITSGKHYWEVDVSKKSAWILGVCAGFQSDAMYNIEQNENYQPKYGYWVIGLQEGVKYSVFQDGSSHTPFAPFIVPLSVIICPDRVGVFVDYEACTVSFFNITNHGFLIYKFSQCSFSKPVFPYLNPRKCTVPMTLCSPSS [rhesus TRIM5α, 332-344 = GAPGTLYTFQTFT]”: the enrichment is 0.855 ± 0.43.

In the case of “MASGILLNVKEEVTCPICLELLTEPLSLHCGHSFCQACITANHKKSMLYKEGERSCPVCRISYQPENIQPNRHVANIVEKLREVKLSPEEGQKVDHCARHGEKLLLFCQEDSKVICWLCERSQEHRGHHTFLMEEVAQEYHVKLQTALEMLRQKQQEAEKLEADIREEKASWKIQIDYDKTNVSADFEQLREILDWEESNELQNLEKEEEDILKSLTKSETEMVQQTQYMRELISELEHRLQGSMMDLLQGVDGIIKRIENMTLKKPKTFHKNQRRVFRAPDLKGMLDMFRELTDARRYWVDVTLAPNNISHAVIAEDKRQVSSRNPQIMYGAPGTLYTFQTFVNFNYCTGVLGSQSITSGKHYWEVDVSKKSAWILGVCAGFQSDAMYNIEQNENYQPKYGYWVIGLQEGVKYSVFQDGSSHTPFAPFIVPLSVIICPDRVGVFVDYEACTVSFFNITNHGFLIYKFSQCSFSKPVFPYLNPRKCTVPMTLCSPSS [rhesus TRIM5α, 332-344 = GAPGTLYTFQTFV]”, the enrichment was determined as 1.25 ± 0.31.

In the case of “MASGILLNVKEEVTCPICLELLTEPLSLHCGHSFCQACITANHKKSMLYKEGERSCPVCRISYQPENIQPNRHVANIVEKLREVKLSPEEGQKVDHCARHGEKLLLFCQEDSKVICWLCERSQEHRGHHTFLMEEVAQEYHVKLQTALEMLRQKQQEAEKLEADIREEKASWKIQIDYDKTNVSADFEQLREILDWEESNELQNLEKEEEDILKSLTKSETEMVQQTQYMRELISELEHRLQGSMMDLLQGVDGIIKRIENMTLKKPKTFHKNQRRVFRAPDLKGMLDMFRELTDARRYWVDVTLAPNNISHAVIAEDKRQVSSRNPQIMYGAPGTLYTFQTLTNFNYCTGVLGSQSITSGKHYWEVDVSKKSAWILGVCAGFQSDAMYNIEQNENYQPKYGYWVIGLQEGVKYSVFQDGSSHTPFAPFIVPLSVIICPDRVGVFVDYEACTVSFFNITNHGFLIYKFSQCSFSKPVFPYLNPRKCTVPMTLCSPSS [rhesus TRIM5α, 332-344 = GAPGTLYTFQTLT]”, the enrichment came to 0.782 ± 0.38.

As for “MASGILLNVKEEVTCPICLELLTEPLSLHCGHSFCQACITANHKKSMLYKEGERSCPVCRISYQPENIQPNRHVANIVEKLREVKLSPEEGQKVDHCARHGEKLLLFCQEDSKVICWLCERSQEHRGHHTFLMEEVAQEYHVKLQTALEMLRQKQQEAEKLEADIREEKASWKIQIDYDKTNVSADFEQLREILDWEESNELQNLEKEEEDILKSLTKSETEMVQQTQYMRELISELEHRLQGSMMDLLQGVDGIIKRIENMTLKKPKTFHKNQRRVFRAPDLKGMLDMFRELTDARRYWVDVTLAPNNISHAVIAEDKRQVSSRNPQIMYGAPGTLYTFQTLVNFNYCTGVLGSQSITSGKHYWEVDVSKKSAWILGVCAGFQSDAMYNIEQNENYQPKYGYWVIGLQEGVKYSVFQDGSSHTPFAPFIVPLSVIICPDRVGVFVDYEACTVSFFNITNHGFLIYKFSQCSFSKPVFPYLNPRKCTVPMTLCSPSS [rhesus TRIM5α, 332-344 = GAPGTLYTFQTLV]”, the enrichment amounted to 1.14 ± 0.02.

“MASGILLNVKEEVTCPICLELLTEPLSLHCGHSFCQACITANHKKSMLYKEGERSCPVCRISYQPENIQPNRHVANIVEKLREVKLSPEEGQKVDHCARHGEKLLLFCQEDSKVICWLCERSQEHRGHHTFLMEEVAQEYHVKLQTALEMLRQKQQEAEKLEADIREEKASWKIQIDYDKTNVSADFEQLREILDWEESNELQNLEKEEEDILKSLTKSETEMVQQTQYMRELISELEHRLQGSMMDLLQGVDGIIKRIENMTLKKPKTFHKNQRRVFRAPDLKGMLDMFRELTDARRYWVDVTLAPNNISHAVIAEDKRQVSSRNPQIMYGAPGTRFPSLTNFNYCTGVLGSQSITSGKHYWEVDVSKKSAWILGVCAGFQSDAMYNIEQNENYQPKYGYWVIGLQEGVKYSVFQDGSSHTPFAPFIVPLSVIICPDRVGVFVDYEACTVSFFNITNHGFLIYKFSQCSFSKPVFPYLNPRKCTVPMTLCSPSS [rhesus TRIM5α, 332-344 = GAPGTRFPSLT]”: the enrichment came out at 0.639 ± 0.56.

For the sequence “MASGILLNVKEEVTCPICLELLTEPLSLHCGHSFCQACITANHKKSMLYKEGERSCPVCRISYQPENIQPNRHVANIVEKLREVKLSPEEGQKVDHCARHGEKLLLFCQEDSKVICWLCERSQEHRGHHTFLMEEVAQEYHVKLQTALEMLRQKQQEAEKLEADIREEKASWKIQIDYDKTNVSADFEQLREILDWEESNELQNLEKEEEDILKSLTKSETEMVQQTQYMRELISELEHRLQGSMMDLLQGVDGIIKRIENMTLKKPKTFHKNQRRVFRAPDLKGMLDMFRELTDARRYWVDVTLAPNNISHAVIAEDKRQVSSRNPQIMYGAPGTRFPTLTNFNYCTGVLGSQSITSGKHYWEVDVSKKSAWILGVCAGFQSDAMYNIEQNENYQPKYGYWVIGLQEGVKYSVFQDGSSHTPFAPFIVPLSVIICPDRVGVFVDYEACTVSFFNITNHGFLIYKFSQCSFSKPVFPYLNPRKCTVPMTLCSPSS [rhesus TRIM5α, 332-344 = GAPGTRFPTLT]”, the enrichment worked out at 0.644 ± 0.08.

With “MASGILLNVKEEVTCPICLELLTEPLSLHCGHSFCQACITANHKKSMLYKEGERSCPVCRISYQPENIQPNRHVANIVEKLREVKLSPEEGQKVDHCARHGEKLLLFCQEDSKVICWLCERSQEHRGHHTFLMEEVAQEYHVKLQTALEMLRQKQQEAEKLEADIREEKASWKIQIDYDKTNVSADFEQLREILDWEESNELQNLEKEEEDILKSLTKSETEMVQQTQYMRELISELEHRLQGSMMDLLQGVDGIIKRIENMTLKKPKTFHKNQRRVFRAPDLKGMLDMFRELTDARRYWVDVTLAPNNISHAVIAEDKRQVSSRNPQIMYGAPGTRFQSLTNFNYCTGVLGSQSITSGKHYWEVDVSKKSAWILGVCAGFQSDAMYNIEQNENYQPKYGYWVIGLQEGVKYSVFQDGSSHTPFAPFIVPLSVIICPDRVGVFVDYEACTVSFFNITNHGFLIYKFSQCSFSKPVFPYLNPRKCTVPMTLCSPSS [rhesus TRIM5α, 332-344 = GAPGTRFQSLT]”, the enrichment worked out at 3.13 ± 2.8.

Take “MASGILLNVKEEVTCPICLELLTEPLSLHCGHSFCQACITANHKKSMLYKEGERSCPVCRISYQPENIQPNRHVANIVEKLREVKLSPEEGQKVDHCARHGEKLLLFCQEDSKVICWLCERSQEHRGHHTFLMEEVAQEYHVKLQTALEMLRQKQQEAEKLEADIREEKASWKIQIDYDKTNVSADFEQLREILDWEESNELQNLEKEEEDILKSLTKSETEMVQQTQYMRELISELEHRLQGSMMDLLQGVDGIIKRIENMTLKKPKTFHKNQRRVFRAPDLKGMLDMFRELTDARRYWVDVTLAPNNISHAVIAEDKRQVSSRNPQIMYGAPGTRFQTFTNFNYCTGVLGSQSITSGKHYWEVDVSKKSAWILGVCAGFQSDAMYNIEQNENYQPKYGYWVIGLQEGVKYSVFQDGSSHTPFAPFIVPLSVIICPDRVGVFVDYEACTVSFFNITNHGFLIYKFSQCSFSKPVFPYLNPRKCTVPMTLCSPSS [rhesus TRIM5α, 332-344 = GAPGTRFQTFT]”: the enrichment came to 0.129 ± 0.18.

With “MASGILLNVKEEVTCPICLELLTEPLSLHCGHSFCQACITANHKKSMLYKEGERSCPVCRISYQPENIQPNRHVANIVEKLREVKLSPEEGQKVDHCARHGEKLLLFCQEDSKVICWLCERSQEHRGHHTFLMEEVAQEYHVKLQTALEMLRQKQQEAEKLEADIREEKASWKIQIDYDKTNVSADFEQLREILDWEESNELQNLEKEEEDILKSLTKSETEMVQQTQYMRELISELEHRLQGSMMDLLQGVDGIIKRIENMTLKKPKTFHKNQRRVFRAPDLKGMLDMFRELTDARRYWVDVTLAPNNISHAVIAEDKRQVSSRNPQIMYGAPGTRFQTLVNFNYCTGVLGSQSITSGKHYWEVDVSKKSAWILGVCAGFQSDAMYNIEQNENYQPKYGYWVIGLQEGVKYSVFQDGSSHTPFAPFIVPLSVIICPDRVGVFVDYEACTVSFFNITNHGFLIYKFSQCSFSKPVFPYLNPRKCTVPMTLCSPSS [rhesus TRIM5α, 332-344 = GAPGTRFQTLV]”, the enrichment was determined as 0.79 ± 0.43.

For the sequence “MASGILLNVKEEVTCPICLELLTEPLSLHCGHSFCQACITANHKKSMLYKEGERSCPVCRISYQPENIQPNRHVANIVEKLREVKLSPEEGQKVDHCARHGEKLLLFCQEDSKVICWLCERSQEHRGHHTFLMEEVAQEYHVKLQTALEMLRQKQQEAEKLEADIREEKASWKIQIDYDKTNVSADFEQLREILDWEESNELQNLEKEEEDILKSLTKSETEMVQQTQYMRELISELEHRLQGSMMDLLQGVDGIIKRIENMTLKKPKTFHKNQRRVFRAPDLKGMLDMFRELTDARRYWVDVTLAPNNISHAVIAEDKRQVSSRNPQIMYGAPGTRFTFPSFTNFNYCTGVLGSQSITSGKHYWEVDVSKKSAWILGVCAGFQSDAMYNIEQNENYQPKYGYWVIGLQEGVKYSVFQDGSSHTPFAPFIVPLSVIICPDRVGVFVDYEACTVSFFNITNHGFLIYKFSQCSFSKPVFPYLNPRKCTVPMTLCSPSS [rhesus TRIM5α, 332-344 = GAPGTRFTFPSFT]”, the enrichment was determined as 0.991 ± 0.29.

Regarding “MASGILLNVKEEVTCPICLELLTEPLSLHCGHSFCQACITANHKKSMLYKEGERSCPVCRISYQPENIQPNRHVANIVEKLREVKLSPEEGQKVDHCARHGEKLLLFCQEDSKVICWLCERSQEHRGHHTFLMEEVAQEYHVKLQTALEMLRQKQQEAEKLEADIREEKASWKIQIDYDKTNVSADFEQLREILDWEESNELQNLEKEEEDILKSLTKSETEMVQQTQYMRELISELEHRLQGSMMDLLQGVDGIIKRIENMTLKKPKTFHKNQRRVFRAPDLKGMLDMFRELTDARRYWVDVTLAPNNISHAVIAEDKRQVSSRNPQIMYGAPGTRFTFPSFVNFNYCTGVLGSQSITSGKHYWEVDVSKKSAWILGVCAGFQSDAMYNIEQNENYQPKYGYWVIGLQEGVKYSVFQDGSSHTPFAPFIVPLSVIICPDRVGVFVDYEACTVSFFNITNHGFLIYKFSQCSFSKPVFPYLNPRKCTVPMTLCSPSS [rhesus TRIM5α, 332-344 = GAPGTRFTFPSFV]”, the enrichment stood at 0.951 ± 0.013.

Regarding “MASGILLNVKEEVTCPICLELLTEPLSLHCGHSFCQACITANHKKSMLYKEGERSCPVCRISYQPENIQPNRHVANIVEKLREVKLSPEEGQKVDHCARHGEKLLLFCQEDSKVICWLCERSQEHRGHHTFLMEEVAQEYHVKLQTALEMLRQKQQEAEKLEADIREEKASWKIQIDYDKTNVSADFEQLREILDWEESNELQNLEKEEEDILKSLTKSETEMVQQTQYMRELISELEHRLQGSMMDLLQGVDGIIKRIENMTLKKPKTFHKNQRRVFRAPDLKGMLDMFRELTDARRYWVDVTLAPNNISHAVIAEDKRQVSSRNPQIMYGAPGTRFTFPSLVNFNYCTGVLGSQSITSGKHYWEVDVSKKSAWILGVCAGFQSDAMYNIEQNENYQPKYGYWVIGLQEGVKYSVFQDGSSHTPFAPFIVPLSVIICPDRVGVFVDYEACTVSFFNITNHGFLIYKFSQCSFSKPVFPYLNPRKCTVPMTLCSPSS [rhesus TRIM5α, 332-344 = GAPGTRFTFPSLV]”, the enrichment was 1.31 ± 0.1.

Values taken from the supplement of paper PMC12230231.
